Assay results from PMC11995724, “Antibiotic target discovery by integrated phenotypic and activity-based profiling of electrophilic fragments” (Cell chemical biology, 2025).
In all, about 3,200 compounds went through this assay and about 110 (3.4%) showed an effect of 50% or more. Some of the results follow.

The compounds below were run on T1, V. cholerae SAD30. Details: relative growth, OD600, LB; 25 µM; inhibitor.
T1 construct: SAD30
Parameters: species or system S. aureus MSSA476 (TSB) or V. cholerae SAD30 (LB); 384-well bacterial growth screen at 25 uM, OD600 relative to DMSO control

SMILES	% of control remaining [%]
O=C(CCl)N(CCCO)C1CCCc2ccccc21 (centres unmarked) [7-J14, 2-chloro-N-(3-hydroxypropyl)-N-(1,2,3,4-tetrahydronaphthalen-1-yl)acetamide]	77.1849
CC(Cl)C(=O)N1CCN(S(=O)(=O)c2ccccc2)CC1 (centres unmarked) [6-B12, 1-[4-(benzenesulfonyl)piperazin-1-yl]-2-chloropropan-1-one]	88.4254
COc1ccc(C2=NN(C(=O)CCl)C(c3cccc(F)c3)C2)cc1 (centres unmarked) [6-P04, 2-chloro-1-[5-(3-fluorophenyl)-3-(4-methoxyphenyl)-4,5-dihydro-1H-pyrazol-1-yl]ethan-1-one]	96.7675
Cc1cc(C)n(CC2CCN(C(=O)C(C)Cl)CC2)n1 (centres unmarked) [7-P17, 2-chloro-1-{4-[(3,5-dimethyl-1H-pyrazol-1-yl)methyl]piperidin-1-yl}propan-1-one]	90.2693
CCN(Cc1ccccc1)C(=O)CCl [6-O21, N-benzyl-2-chloro-N-ethylacetamide]	98.8909
C=CCNC(=O)C(C#N)=Cc1cccc(C(F)(F)F)c1 [8-L09, 2-cyano-N-(prop-2-en-1-yl)-3-[3-(trifluoromethyl)phenyl]prop-2-enamide]	71.8559
C=CC(=O)N(C)CC(=O)N1CCCCC1c1nc(C)c(C)s1 (centres unmarked) [2-E20, N-{2-[2-(4,5-dimethyl-1,3-thiazol-2-yl)piperidin-1-yl]-2-oxoethyl}-N-methylprop-2-enamide]	98.2245
COc1ccc(C=C(C#N)C(=O)NCc2ccccc2)cc1 [8-K19, N-benzyl-2-cyano-3-(4-methoxyphenyl)prop-2-enamide]	71.0401
C=CC(=O)Nc1ccc(C(=O)NC2CCN(S(C)(=O)=O)CC2)cc1 [2-M21, N-(1-methanesulfonylpiperidin-4-yl)-4-(prop-2-enamido)benzamide]	87.88
C=CC(=O)Nc1ccc(C(=O)N2CCC(C)(C)S(=O)(=O)CC2)cc1 [3-E04, N-[4-(7,7-dimethyl-1,1-dioxo-1lambda6,4-thiazepane-4-carbonyl)phenyl]prop-2-enamide]	101.97
CSc1cc(C(=O)CCl)ccc1NC(C)=O [10-H08, N-[4-(2-chloroacetyl)-2-(methylsulfanyl)phenyl]acetamide]	25.2484
C=CC(=O)N1CCC(C(=O)NCc2nnc(C(C)C)n2C)CC1 [3-C16, N-{[4-methyl-5-(propan-2-yl)-4H-1,2,4-triazol-3-yl]methyl}-1-(prop-2-enoyl)piperidine-4-carboxamide]	97.3828
N#CC(=Cc1ccc(Cl)cc1)C(=O)Nc1nccs1 [8-C11, 3-(4-chlorophenyl)-2-cyano-N-(1,3-thiazol-2-yl)prop-2-enamide]	70.4963
Cc1cc(C)cc(-c2cc(NC(=O)CCl)n(-c3ccccc3)n2)c1 [4-K04, 2-chloro-N-[3-(3,5-dimethylphenyl)-1-phenyl-1H-pyrazol-5-yl]acetamide]	106.103
CC1CC1c1ccc(C=C(C#N)C(=O)Nc2ccc(C(=O)O)cc2)o1 (centres unmarked) [9-G16, 4-{2-cyano-3-[5-(2-methylcyclopropyl)furan-2-yl]prop-2-enamido}benzoic acid]	84.5003
O=C(CCl)c1ccc(CC(=O)N2CCOCC2)s1 [10-H06, 2-chloro-1-{5-[2-(morpholin-4-yl)-2-oxoethyl]thiophen-2-yl}ethan-1-one]	101.305
C=CC(=O)N1CCC(C(=O)NCCC2(O)CCCOC2)CC1 (centres unmarked) [2-B04, N-[2-(3-hydroxyoxan-3-yl)ethyl]-1-(prop-2-enoyl)piperidine-4-carboxamide]	101.004
O=C(CCl)N1CCC1c1cccc(F)c1 (centres unmarked) [5-K10, 2-chloro-1-[2-(3-fluorophenyl)azetidin-1-yl]ethan-1-one]	86.5819
CC1CCc2c(sc(NC(=O)CCl)c2C(=O)OC(C)C)C1 (centres unmarked) [4-D07, propan-2-yl 2-(2-chloroacetamido)-6-methyl-4,5,6,7-tetrahydro-1-benzothiophene-3-carboxylate]	100.41
Cc1c(C=C(C#N)C(=O)Nc2nccs2)cc(C#N)n1C [8-B18, 2-cyano-3-(5-cyano-1,2-dimethyl-1H-pyrrol-3-yl)-N-(1,3-thiazol-2-yl)prop-2-enamide]	74.0313
C=CC(=O)NCCC(=O)N1CCc2cc(C)c([N+](=O)[O-])cc21 [3-F08, N-[3-(5-methyl-6-nitro-2,3-dihydro-1H-indol-1-yl)-3-oxopropyl]prop-2-enamide]	95.7949
O=C(CCl)NCc1ccccc1C(F)(F)F [6-K10, 2-chloro-N-{[2-(trifluoromethyl)phenyl]methyl}acetamide]	92.0656

SMILES	% of control remaining [%]
O=C(CCl)N1c2ccc(F)cc2NC(=O)C12CCC2 [5-K09, 1'-(2-chloroacetyl)-6'-fluoro-3',4'-dihydro-1'H-spiro[cyclobutane-1,2'-quinoxalin]-3'-one]	94.8198
C=CC(=O)NCCc1ccn(-c2ccc(F)cc2)n1 [2-P03, N-{2-[1-(4-fluorophenyl)-1H-pyrazol-3-yl]ethyl}prop-2-enamide]	113.818
COC(=O)c1c(-c2ccccc2Cl)csc1NC(=O)CCl [4-F07, methyl 2-(2-chloroacetamido)-4-(2-chlorophenyl)thiophene-3-carboxylate]	96.9592
CC(Cl)C(=O)N(Cc1ccccc1)Cc1ccccc1 (centres unmarked) [5-K19, N,N-dibenzyl-2-chloropropanamide]	59.5146
CC(Cl)C(=O)NCCCc1c[nH]c2ccc(F)cc12 (centres unmarked) [7-J09, 2-chloro-N-[3-(5-fluoro-1H-indol-3-yl)propyl]propanamide]	64.1004
N#CC(=Cc1ccccc1)C(=O)Nc1nncs1 [8-K09, 2-cyano-3-phenyl-N-(1,3,4-thiadiazol-2-yl)prop-2-enamide]	72.2638
O=C(CCl)NCC1(c2ccccc2)CCC1 [4-O19, 2-chloro-N-[(1-phenylcyclobutyl)methyl]acetamide]	104.55
O=C(CCl)N(CC1CCCO1)C1CCS(=O)(=O)C1 (centres unmarked) [5-N16, 2-chloro-N-(1,1-dioxo-1lambda6-thiolan-3-yl)-N-[(oxolan-2-yl)methyl]acetamide]	100.536
C=CC(=O)NCc1cn(C)nc1-c1ccccn1 [2-H03, N-{[1-methyl-3-(pyridin-2-yl)-1H-pyrazol-4-yl]methyl}prop-2-enamide]	111.039
COCCNC(=O)C(C#N)=Cc1cccc(O)c1 [9-H08, 2-cyano-3-(3-hydroxyphenyl)-N-(2-methoxyethyl)prop-2-enamide]	89.259
C=CC(=O)NCCNC(=O)C1CC12CCSCC2 (centres unmarked) [2-O06, N-[2-({6-thiaspiro[2.5]octan-1-yl}formamido)ethyl]prop-2-enamide]	92.0486
C=CC(=O)Nc1ccnn1C(C)C [2-O07, N-[1-(propan-2-yl)-1H-pyrazol-5-yl]prop-2-enamide]	90.9679
C=CC(=O)N1CCC=C(c2cn(C(C)C)nn2)CC1 [3-D19, 1-{4-[1-(propan-2-yl)-1H-1,2,3-triazol-4-yl]-2,3,6,7-tetrahydro-1H-azepin-1-yl}prop-2-en-1-one]	102.5
COc1cc(C=C(C#N)C(=O)NC2CCCCC2)cc(Cl)c1O [8-H21, 3-(3-chloro-4-hydroxy-5-methoxyphenyl)-2-cyano-N-cyclohexylprop-2-enamide]	80.5574
CC1CCCN1C(=O)CNC(=O)CCl (centres unmarked) [7-L12, 2-chloro-N-[2-(2-methylpyrrolidin-1-yl)-2-oxoethyl]acetamide]	80.2247
C=CC(=O)N1CCC(C(=O)Nc2ccccc2NS(C)(=O)=O)CC1 [3-C06, N-(2-methanesulfonamidophenyl)-1-(prop-2-enoyl)piperidine-4-carboxamide]	107.793
CC(Cl)C(=O)Nc1c(Cl)cccc1Cl (centres unmarked) [4-B16, 2-chloro-N-(2,6-dichlorophenyl)propanamide]	102.653
C=CC(=O)NCCc1nc(-c2ccccc2)nn1C [2-M12, N-[2-(1-methyl-3-phenyl-1H-1,2,4-triazol-5-yl)ethyl]prop-2-enamide]	85.4096
O=C(CCl)NC(c1ccccc1)c1ccc(Cl)cc1 (centres unmarked) [4-G04, 2-chloro-N-[(4-chlorophenyl)(phenyl)methyl]acetamide]	113.004
N#CC(=Cc1cccs1)C(=O)Nc1nccs1 [8-G13, 2-cyano-N-(1,3-thiazol-2-yl)-3-(thiophen-2-yl)prop-2-enamide]	71.7199
C=CC(=O)N(C)C1CS(=O)(=O)C1 [1-E03, N-(1,1-dioxo-1lambda6-thietan-3-yl)-N-methylprop-2-enamide]	104.185
Cc1ccc(NC(=O)CCl)cc1[N+](=O)[O-] [4-M13, 2-chloro-N-(4-methyl-3-nitrophenyl)acetamide]	93.6813
